Results reported in patent US20230340142A1 (SUZHOU NEOLOGICS BIOSCIENCE, published 2023).

B1: B fusion protein (SEQ ID NOs:155 and 162) (other)
heavy: QGQLVQSGAEVKKPGSSVKVSCKTSGFTFSSSYISWVRQAPGQGLEWMGWIYAGTGGTSYNQKFTGRVTITVDTSTSTAYMELSSLRSEDTAVYYCARHEGKYWYFDVWGQGTTVTVSSASTKGPSVFPLAPSSKSTSGGTAALGCLVKDYFPEPVTVSWNSGALTSGVHTFPAVLQSSGLYSLSSVVTVPSSSLGTQTYICNVNHKPSNTKVDKRV[human IgG1 Fc omitted]PEAPTDPEAPTDPEAPTDIPPHVQKSVNNDMIVTDNNGAVKFPQLCKFCDVRFSTCDNQKSCMSNCSITSICEKPQEVCVAVWRKNDENITLETVCHDPKLPYHDFILEDAASPKCIMKEKKKPGETFFMCSCSSDECNDNIIFS
light: EIVMTQSPATLSVSPGERATLSCSASSSVSYVHWYQQKPGQAPRPWIYDTSNLASGFPARFSGSGSGTEYTLTISSLQSEDAAVYYCHQRSSYPWTFGGGTKVEIKRTVAAPSVFIFPPSDEQLKSGTASVVCLLNNFYPREAKVQWKVDNALQSGNSQESVTEQDSKDSTYSLSSTLTLSKADYEKHKVYACEVTHQGLSSPVTKSFNRGEC
notes: Anti-PD-L1 antibody (humanized Clone B) whose heavy chain is linked through a transferrin linker to a TGFbRII ECD trap; also called B fusion protein-1; B fusion protein - 1; copies: 2 + 2
B2: B fusion protein-24 (SEQ ID NOs:235 and 162) (other)
heavy: QGQLVQSGAEVKKPGSSVKVSCKTSGFTFSSSYISWVRQAPGQGLEWMGWIYAGTGGTSYNQKFTGRVTITVDTSTSTAYMELSSLRSEDTAVYYCARHEGKYWYFDVWGQGTTVTVSSASTKGPSVFPLAPSSKSTSGGTAALGCLVKDYFPEPVTVSWNSGALTSGVHTFPAVLQSSGLYSLSSVVTVPSSSLGTQTYICNVNHKPSNTKVDKRV[human IgG1 Fc omitted]IPPHVGGSVNNDMIVTDNAGAVKFPQLCKFCDVRFSTCDNQKSCMSNCSITSICEKPQEVCVAVWRKNDENITLETVCHDPKLPYHDFILEDAASPKCIMKEKKKPGETFFMCSCSSDECNDNIIFS
light: B1 light
notes: no linker; copies: 2 + 2
B3: B fusion protein-26 (SEQ ID NOs:237 and 162) (other)
heavy: QGQLVQSGAEVKKPGSSVKVSCKTSGFTFSSSYISWVRQAPGQGLEWMGWIYAGTGGTSYNQKFTGRVTITVDTSTSTAYMELSSLRSEDTAVYYCARHEGKYWYFDVWGQGTTVTVSSASTKGPSVFPLAPSSKSTSGGTAALGCLVKDYFPEPVTVSWNSGALTSGVHTFPAVLQSSGLYSLSSVVTVPSSSLGTQTYICNVNHKPSNTKVDKRV[human IgG1 Fc omitted]PEAPTDEPEAPTDEPEAPTDEIPPHVQKSVNNDMIVTDNNGAVKFPQLCKFCDVRFSTCDNQKSCMSNCSITSICEKPQEVCVAVWRKNDENITLETVCHDPKLPYHDFILEDAASPKCIMKEKKKPGETFFMCSCSSDECNDNIIFS
light: B1 light
notes: linker (PEAPTDE)3
B4: B fusion protein-23 (SEQ ID NOs:234 and 162) (other)
heavy: QGQLVQSGAEVKKPGSSVKVSCKTSGFTFSSSYISWVRQAPGQGLEWMGWIYAGTGGTSYNQKFTGRVTITVDTSTSTAYMELSSLRSEDTAVYYCARHEGKYWYFDVWGQGTTVTVSSASTKGPSVFPLAPSSKSTSGGTAALGCLVKDYFPEPVTVSWNSGALTSGVHTFPAVLQSSGLYSLSSVVTVPSSSLGTQTYICNVNHKPSNTKVDKRV[human IgG1 Fc omitted]PEAPTDPEAPTDPEAPTDPEAIPPHVQGSVNNDMIVTDNAGAVKFPQLCKFCDVRFSTCDNQKSCMSNCSITSICEKPQEVCVAVWRKNDENITLETVCHDPKLPYHDFILEDAASPKCIMKEKKKPGETFFMCSCSSDECNDNIIFS
light: B1 light
B5: B fusion protein-25 (SEQ ID NOs:236 and 162) (other)
heavy: QGQLVQSGAEVKKPGSSVKVSCKTSGFTFSSSYISWVRQAPGQGLEWMGWIYAGTGGTSYNQKFTGRVTITVDTSTSTAYMELSSLRSEDTAVYYCARHEGKYWYFDVWGQGTTVTVSSASTKGPSVFPLAPSSKSTSGGTAALGCLVKDYFPEPVTVSWNSGALTSGVHTFPAVLQSSGLYSLSSVVTVPSSSLGTQTYICNVNHKPSNTKVDKRV[human IgG1 Fc omitted]PEAPTDEPEAPTDEPEAIPPHVGGSVNNDMIVTDNAGAVKFPQLCKFCDVRFSTCDNQKSCMSNCSITSICEKPQEVCVAVWRKNDENITLETVCHDPKLPYHDFILEDAASPKCIMKEKKKPGETFFMCSCSSDECNDNIIFS
light: B1 light
notes: linker (PEAPTDE)2PEA; copies: 2 + 2

What follows are binders tested against T1, human PD-L1 recombinant protein, PD-L1-his (human, UniProt Q9NZQ7 in part) (assay: Gator BLI; fusion protein on HFC sensor, antigen in solution; 1:1 fit).
T1 construct: also called PD-L1 with a his-tag; not shown: his-tag

Row | Kd | koff | kon | Binder
1 | 8.43 nM | 0.00163 s⁻¹ | 193000 M⁻¹ s⁻¹ | B1
2 | 1.31 nM | 0.000662 s⁻¹ | 507000 M⁻¹ s⁻¹ | B2
3 | 1.28 nM | 0.00071 s⁻¹ | 552000 M⁻¹ s⁻¹ | B3
4 | 1.05 nM | 0.00059 s⁻¹ | 560000 M⁻¹ s⁻¹ | B4
5 | 0.91 nM | 0.000496 s⁻¹ | 545000 M⁻¹ s⁻¹ | B5

Each binder was assayed against T2, TGF-beta 1 recombinant protein (Example 11) (UniProt P01137 in part, limits assumed) in the same assay as above.
T2 construct: also called TGF- 1; TGF-1
T2 sequence (P01137 279-390 limits assumed): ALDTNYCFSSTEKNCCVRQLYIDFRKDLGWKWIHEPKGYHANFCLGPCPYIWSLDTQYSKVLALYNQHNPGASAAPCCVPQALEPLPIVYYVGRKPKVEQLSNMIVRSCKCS

Row | Kd | koff | kon | Binder
6 | 0.679 nM | 0.00147 s⁻¹ | 2.17e+06 M⁻¹ s⁻¹ | B1
7 | 0.758 nM | 0.000294 s⁻¹ | 387000 M⁻¹ s⁻¹ | B2
8 | 0.727 nM | 0.00036 s⁻¹ | 495000 M⁻¹ s⁻¹ | B3
9 | 0.331 nM | 0.000124 s⁻¹ | 375000 M⁻¹ s⁻¹ | B4
10 | 0.436 nM | 0.000235 s⁻¹ | 538000 M⁻¹ s⁻¹ | B5

What follows are binders tested against T3, human PD-L1 (human, UniProt Q9NZQ7 in part, limits assumed) (assay: sandwich ELISA: coated hPD-L1, titrated fusion protein, then rhTGF-β, biotinylated anti-TGF-β antibody and streptavidin-HRP, OD450).
T3 construct: also called hPD-L1

Row | EC50 (read off the curve) | Binder
11 | ~0.01 µg/mL | B1
